Consider 28 compounds from the antibiotic and cytotoxicity screens of Wong et al. (2023).

Experiment [1] relates to HSkMC (human skeletal muscle cells). The experiment can be described thus: cytotoxicity call (relative viability < 0.9). To be noted: 10 µM.
Experiment [2] deals with HepG2. The experiment can be described thus: cytotoxicity call (relative viability < 0.9). The note with it: 10 µM.
In experiment [3] the test system is S. aureus RN4220. In words: growth inhibition call (relative growth <= 0.2). The note with it: 50 µM.

The structures appear in SMILES notation. The list shows a part of the results.

For `Cc1ccccc1S(=O)(=O)N1C[C@H](O)COC[C@H]2O[C@@H](CC(=O)NCCc3ccncc3)CC[C@@H]21`, the cytotoxicity call in experiment [1] and in experiment [2] was “inactive” throughout. For the same compound, in experiment [3], the growth inhibition call is “inactive”.
Take `CN(C)CC(=O)N[C@H]1CC[C@@H](CCn2cc(CN(C)C)nn2)O[C@@H]1CO`: the cytotoxicity call in experiment [1] and in experiment [2] was “inactive” throughout. Moreover, the growth inhibition call in experiment [3] was “inactive”.
On to `C[C@@H]1CN([C@H](C)CO)C(=O)c2cc(NS(=O)(=O)c3cccs3)ccc2O[C@H]1CN(C)Cc1ccc(-c2ccccc2)cc1`, for which the cytotoxicity call in experiment [1] and in experiment [2] was “inactive” throughout. Moreover, in experiment [3], the growth inhibition call is “inactive”.
Regarding `C[C@@H]1CN([C@H](C)CO)C(=O)c2cc(NC(=O)c3ccccc3)ccc2O[C@@H](C)CCCCO[C@H]1CN(C)Cc1ccncc1`, the cytotoxicity call in experiment [1] and in experiment [2] was “inactive” throughout. Further, the growth inhibition call in experiment [3] was “inactive”.
As for `Cc1ccc(S(=O)(=O)Nc2ccc3c(c2)C(=O)N([C@H](C)CO)C[C@H](C)[C@@H](CN(C)S(=O)(=O)c2ccc(F)cc2)O3)cc1`, the cytotoxicity call in experiment [1] and in experiment [2] was “inactive” each time. Besides, in experiment [3], the growth inhibition call was “inactive”.
Consider `C[C@@H]1CN([C@@H](C)CO)C(=O)c2cc(NS(=O)(=O)c3ccc(F)cc3)ccc2O[C@@H](C)CCCCO[C@H]1CN(C)CC1CCCCC1`, for which the cytotoxicity call in experiment [1] and in experiment [2] was “inactive” each time. Also, the growth inhibition call in experiment [3] is “inactive”.
For the compound `COc1ccc(NC(=O)N(C)C[C@H]2Oc3ncc(C#CC(C)C)cc3C(=O)N([C@@H](C)CO)C[C@H]2C)cc1`, the cytotoxicity call in experiment [1] and in experiment [2] was “inactive” throughout. For the same compound, the growth inhibition call in experiment [3] was “inactive”.
For the compound `Cc1ccc(S(=O)(=O)Nc2ccc3c(c2)CC(=O)N([C@@H](C)CO)C[C@@H](C)[C@H](CN(C)C(=O)NC(C)C)O3)cc1`, the cytotoxicity call in experiment [1] and in experiment [2] was “inactive” in each case. In experiment [3], the growth inhibition call was “inactive”.
Regarding `Cc1noc(C)c1NC(=O)Nc1cccc2c1O[C@H](CN(C)Cc1ccc(Cl)c(Cl)c1)[C@@H](C)CN([C@H](C)CO)C2=O`, the cytotoxicity call in experiment [1] and in experiment [2] was “inactive” each time. For the same compound, the growth inhibition call in experiment [3] is “inactive”.
Turning to `O=c1c(-c2nn[nH]n2)coc2ccccc12`, the cytotoxicity call in experiment [1] and in experiment [2] was “inactive” in each case. In experiment [3], the growth inhibition call was “inactive”.
Turning to `C[C@H]1CN([C@@H](C)CO)C(=O)c2cc(NC(=O)CCCN(C)C)ccc2O[C@@H]1CN(C)C(=O)NC1CCCCC1`, the cytotoxicity call in experiment [1] and in experiment [2] was “inactive” each time. Also, the growth inhibition call in experiment [3] is “inactive”.
On to `C[C@H](NC(=O)C[C@@H]1C=C[C@@H](NC(=O)CN2CCOCC2)[C@H](CO)O1)c1ccccc1`, for which the cytotoxicity call in experiment [1] and in experiment [2] was “inactive” each time. The growth inhibition call in experiment [3] was “inactive”.
`COc1ccc(S(=O)(=O)N(C)C[C@@H]2Oc3ncc(C#Cc4ccccc4)cc3C(=O)N([C@H](C)CO)C[C@@H]2C)cc1`: the cytotoxicity call in experiment [1] and in experiment [2] was “inactive” throughout. The growth inhibition call in experiment [3] was “inactive”.
Take `C[C@H](CO)N1C[C@H](C)[C@@H](CN(C)Cc2ccc(C(F)(F)F)cc2)Oc2c(NC(=O)Nc3ccc4c(c3)OCO4)cccc2C1=O`: the cytotoxicity call in experiment [1] and in experiment [2] was “inactive” in each case. For the same compound, in experiment [3], the growth inhibition call is “inactive”.
As for `CC1COC2=C1C(=O)C(=O)c1c2ccc2c1CCCC2(C)C` (centres undefined), the cytotoxicity call in experiment [1] and in experiment [2] was “active” each time. In addition, in experiment [3], the growth inhibition call was “active”.
On to `C[C@H](CO)N1C[C@H](C)[C@H](CN(C)C(=O)c2ccc3c(c2)OCO3)Oc2cc(-c3cncnc3)ccc2S1(=O)=O`, for which the cytotoxicity call in experiment [1] and in experiment [2] was “inactive” in each case. For the same compound, in experiment [3], the growth inhibition call is “inactive”.
As for `C[C@H]1CN([C@@H](C)CO)C(=O)c2cc(-c3ccncc3)cnc2O[C@H]1CN(C)S(=O)(=O)c1ccccc1`, the cytotoxicity call in experiment [1] and in experiment [2] was “inactive” in each case. For the same compound, in experiment [3], the growth inhibition call was “inactive”.
On to `COc1ccc(NC(=O)Nc2ccc3c(c2)C(=O)N([C@H](C)CO)C[C@H](C)[C@@H](CN(C)Cc2ccc(Cl)c(Cl)c2)O3)cc1`, for which the cytotoxicity call in experiment [1] and in experiment [2] was “inactive” each time. Besides, in experiment [3], the growth inhibition call was “inactive”.
In the case of `CN1CCN(C(=O)C[C@H]2C[C@H]3c4cc(NS(=O)(=O)c5ccc(F)cc5)ccc4O[C@H]3[C@H](CO)O2)CC1`, the cytotoxicity call in experiment [1] and in experiment [2] was “inactive” each time. For the same compound, the growth inhibition call in experiment [3] was “inactive”.
As to `C[C@H](CO)N1C[C@H](C)[C@H](CN(C)C(=O)CCCN(C)C)OCCCC[C@H](C)Oc2ccc(NC(=O)Nc3ccc(F)cc3)cc2C1=O`, the cytotoxicity call in experiment [1] and in experiment [2] was “inactive” in each case. The growth inhibition call in experiment [3] was “inactive”.
On to `COCC#Cc1ccc2c(c1)O[C@H](CN(C)S(C)(=O)=O)[C@@H](C)CN([C@H](C)CO)S2(=O)=O`, for which the cytotoxicity call in experiment [1] and in experiment [2] was “inactive” each time. Further, the growth inhibition call in experiment [3] was “inactive”.
As to `C[C@@H]1CN([C@H](C)CO)C(=O)c2cccc(NC(=O)c3cnccn3)c2O[C@@H]1CN(C)Cc1ccncc1`, the cytotoxicity call in experiment [1] and in experiment [2] was “inactive” in each case. In addition, the growth inhibition call in experiment [3] was “inactive”.
`CN1C(=O)c2cc(NC(=O)c3cscn3)ccc2OC[C@H]2O[C@H](CC(=O)N3CCOCC3)CC[C@H]21`: the cytotoxicity call in experiment [1] and in experiment [2] was “inactive” in each case. Further, in experiment [3], the growth inhibition call is “inactive”.
For `C/C=C/c1cnc2c(c1)C(=O)N([C@@H](C)CO)C[C@@H](C)[C@@H](CN(C)S(=O)(=O)c1ccc(OC)cc1)O2`, the cytotoxicity call in experiment [1] and in experiment [2] was “inactive” in each case. Moreover, the growth inhibition call in experiment [3] is “inactive”.
In the case of `CC(=O)n1cc([C@H]2C=C(C(=O)N3CCN(C)CC3)O[C@@H](OCc3ccc(CO)cc3)C2)c2ccccc21`, the cytotoxicity call in experiment [1] and in experiment [2] was “inactive” throughout. In experiment [3], the growth inhibition call was “inactive”.
As to `CN(C)CCCNC(=O)C[C@@H]1CC[C@@H]2[C@H](COC[C@@H](O)CN2C(=O)Nc2cc(Cl)cc(Cl)c2)O1`, the cytotoxicity call in experiment [1] and in experiment [2] was “inactive” each time. Further, in experiment [3], the growth inhibition call was “inactive”.
Turning to `Cc1noc(C)c1C(=O)OCC(=O)NC1CC1`, the cytotoxicity call in experiment [1] and in experiment [2] was “inactive” in each case. For the same compound, the growth inhibition call in experiment [3] was “inactive”.
In the case of `COc1ccc(S(=O)(=O)Nc2ccc3c(c2)CC(=O)N([C@@H](C)CO)C[C@@H](C)[C@H](CN(C)S(=O)(=O)c2cccs2)O3)cc1`, the cytotoxicity call in experiment [1] and in experiment [2] was “inactive” each time. The growth inhibition call in experiment [3] was “inactive”.
